Measured values taken from publication PMC9911399, “Two distinct binding modes provide the RNA-binding protein RbFox with extraordinary sequence specificity”.
Where a chain is given by its changes, count along the chain named. Some of the results follow.

B1: GCUAAGC (DNA:RNA)
RNA: GGGAGACCGGAAUUCAGAUUGUCCGCUAAGCUUAAAUCCCGUCGUAGCCACCA
DNA 1: CAATCTGAATTCCGGTCTCCC
DNA 2: TGGTGGCTACGACGGGATT
B2: AUAUGAC (DNA:RNA)
RNA: B1 RNA with G25A, C26U, U27A, A28U, A29G, G30A
DNA 1: CAATCTGAATTCCGGTCTCCC
DNA 2: TGGTGGCTACGACGGGATT
B3: CAUAGGU (DNA:RNA)
RNA: B1 RNA with G25C, C26A, A29G, C31U
DNA 1: CAATCTGAATTCCGGTCTCCC
DNA 2: TGGTGGCTACGACGGGATT
B4: AAGCUCU (DNA:RNA)
RNA: GGGAGACCGGAAUUCAGAUUGUCCAAGCUCUUUAAAUCCCGUCGUAGCCACCA
DNA 1: CAATCTGAATTCCGGTCTCCC
DNA 2: TGGTGGCTACGACGGGATT
B5: CCUCAGG (DNA:RNA)
RNA: B1 RNA with G25C, A28C, C31G
DNA 1: CAATCTGAATTCCGGTCTCCC
DNA 2: TGGTGGCTACGACGGGATT
B6: CCUAAUU (DNA:RNA)
RNA: B1 RNA with G25C, G30U, C31U
DNA 1: CAATCTGAATTCCGGTCTCCC
DNA 2: TGGTGGCTACGACGGGATT
B7: UCAUGUA (DNA:RNA)
RNA: B1 RNA with G25U, U27A, A28U, A29G, G30U, C31A
DNA 1: CAATCTGAATTCCGGTCTCCC
DNA 2: TGGTGGCTACGACGGGATT
B8: AUAGGUU (DNA:RNA)
RNA: B4 RNA with A26U, G27A, C28G, U29G, C30U
DNA 1: CAATCTGAATTCCGGTCTCCC
DNA 2: TGGTGGCTACGACGGGATT
B9: CAGCACC (DNA:RNA)
RNA: B4 RNA with A25C, U29A, U31C
DNA 1: CAATCTGAATTCCGGTCTCCC
DNA 2: TGGTGGCTACGACGGGATT
B10: ACUAGAC (DNA:RNA)
RNA: B1 RNA with G25A, A29G, G30A
DNA 1: CAATCTGAATTCCGGTCTCCC
DNA 2: TGGTGGCTACGACGGGATT
B11: ACUGCCC (DNA:RNA)
RNA: B1 RNA with G25A, A28G, A29C, G30C
DNA 1: CAATCTGAATTCCGGTCTCCC
DNA 2: TGGTGGCTACGACGGGATT
B12: UAUUUAC (DNA:RNA)
RNA: B4 RNA with A25U, G27U, C28U, C30A, U31C
DNA 1: CAATCTGAATTCCGGTCTCCC
DNA 2: TGGTGGCTACGACGGGATT
B13: CUAAGUU (DNA:RNA)
RNA: B4 RNA with A25C, A26U, G27A, C28A, U29G, C30U
DNA 1: CAATCTGAATTCCGGTCTCCC
DNA 2: TGGTGGCTACGACGGGATT
B14: UCCAUCA (DNA:RNA)
RNA: B4 RNA with A25U, A26C, G27C, C28A, U31A
DNA 1: CAATCTGAATTCCGGTCTCCC
DNA 2: TGGTGGCTACGACGGGATT
B15: CGGAUCA (DNA:RNA)
RNA: B4 RNA with A25C, A26G, C28A, U31A
DNA 1: CAATCTGAATTCCGGTCTCCC
DNA 2: TGGTGGCTACGACGGGATT
B16: AAGGCGA (DNA:RNA)
RNA: B4 RNA with C28G, U29C, C30G, U31A
DNA 1: CAATCTGAATTCCGGTCTCCC
DNA 2: TGGTGGCTACGACGGGATT
B17: GAACAGC (DNA:RNA)
RNA: B1 RNA with C26A, U27A, A28C
DNA 1: CAATCTGAATTCCGGTCTCCC
DNA 2: TGGTGGCTACGACGGGATT
B18: CUAACAU (DNA:RNA)
RNA: B4 RNA with A25C, A26U, G27A, C28A, U29C, C30A
DNA 1: CAATCTGAATTCCGGTCTCCC
DNA 2: TGGTGGCTACGACGGGATT
B19: UUAGAAC (DNA:RNA)
RNA: B1 RNA with G25U, C26U, U27A, A28G, G30A
DNA 1: CAATCTGAATTCCGGTCTCCC
DNA 2: TGGTGGCTACGACGGGATT
B20: UGGGAGC (DNA:RNA)
RNA: B1 RNA with G25U, C26G, U27G, A28G
DNA 1: CAATCTGAATTCCGGTCTCCC
DNA 2: TGGTGGCTACGACGGGATT
B21: ACGAGUA (DNA:RNA)
RNA: B4 RNA with A26C, C28A, U29G, C30U, U31A
DNA 1: CAATCTGAATTCCGGTCTCCC
DNA 2: TGGTGGCTACGACGGGATT
B22: GCCAGGG (DNA:RNA)
RNA: B1 RNA with U27C, A29G, C31G
DNA 1: CAATCTGAATTCCGGTCTCCC
DNA 2: TGGTGGCTACGACGGGATT
B23: GGGAUUA (DNA:RNA)
RNA: B4 RNA with A25G, A26G, C28A, C30U, U31A
DNA 1: CAATCTGAATTCCGGTCTCCC
DNA 2: TGGTGGCTACGACGGGATT
B24: GCCGCUC (DNA:RNA)
RNA: B1 RNA with U27C, A28G, A29C, G30U
DNA 1: CAATCTGAATTCCGGTCTCCC
DNA 2: TGGTGGCTACGACGGGATT
B25: UUCCAUG (DNA:RNA)
RNA: B4 RNA with A25U, A26U, G27C, U29A, C30U, U31G
DNA 1: CAATCTGAATTCCGGTCTCCC
DNA 2: TGGTGGCTACGACGGGATT
B26: AGGACUC (DNA:RNA)
RNA: B4 RNA with A26G, C28A, U29C, C30U, U31C
DNA 1: CAATCTGAATTCCGGTCTCCC
DNA 2: TGGTGGCTACGACGGGATT
B27: GCCAUGA (DNA:RNA)
RNA: B1 RNA with U27C, A29U, C31A
DNA 1: CAATCTGAATTCCGGTCTCCC
DNA 2: TGGTGGCTACGACGGGATT
B28: GAGCCCU (DNA:RNA)
RNA: B4 RNA with A25G, U29C
DNA 1: CAATCTGAATTCCGGTCTCCC
DNA 2: TGGTGGCTACGACGGGATT
B29: AGAAAGU (DNA:RNA)
RNA: B1 RNA with G25A, C26G, U27A, C31U
DNA 1: CAATCTGAATTCCGGTCTCCC
DNA 2: TGGTGGCTACGACGGGATT
B30: GUCGAAU (DNA:RNA)
RNA: B1 RNA with C26U, U27C, A28G, G30A, C31U
DNA 1: CAATCTGAATTCCGGTCTCCC
DNA 2: TGGTGGCTACGACGGGATT
B31: GUCCGAU (DNA:RNA)
RNA: B4 RNA with A25G, A26U, G27C, U29G, C30A
DNA 1: CAATCTGAATTCCGGTCTCCC
DNA 2: TGGTGGCTACGACGGGATT

Target: T1, RBFOX1 RRM RbFoxmut (Fox-RRM*) (Homo sapiens, UniProt Q9NWB1 109-208, R118D;E147R;N151S;E152T)
T1 sequence: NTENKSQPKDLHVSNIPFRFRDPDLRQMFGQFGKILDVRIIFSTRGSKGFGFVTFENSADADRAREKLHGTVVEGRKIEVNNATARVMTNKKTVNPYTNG
Assay: EMSA; HiTS-Eq, 1 nM pool, 10 min; buffer printed only for the single-RNA assays: 10 mM Tris pH 7.5, 150 mM NaCl, 3.4 mM EDTA, 0.001% NP-40, 30 C
Details: tags: His6 N-terminal (pET28a); label: 5' 32P
Method in brief: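 Purified RbFox RRM, wild type or mutant, was incubated for 10 min in 50 µL with 1 nM of a 5′-radiolabelled RNA pool carrying 7 randomized nucleotides, whose flanks were annealed to DNA oligonucleotides, over a series of increasing protein concentrations. Unbound RNA was resolved on 8% native PAGE, cut out, reverse-transcribed, barcoded by PCR and sequenced on an Illumina HiSeq 2500. Relative association constants were derived from changes in read counts for each RNA species versus the control reaction and normalised to the cognate motif.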

Binder	binding signal
B1	0.0804 KA relative to UGCAUGU
B2	0.131 KA relative to UGCAUGU
B3	0.13 KA relative to UGCAUGU
B4	0.0709 KA relative to UGCAUGU
B5	0.107 KA relative to UGCAUGU
B6	0.0682 KA relative to UGCAUGU
B7	0.206 KA relative to UGCAUGU
B8	0.106 KA relative to UGCAUGU
B9	0.0926 KA relative to UGCAUGU
B10	0.101 KA relative to UGCAUGU
B11	0.0769 KA relative to UGCAUGU
B12	0.113 KA relative to UGCAUGU
B13	0.0884 KA relative to UGCAUGU
B14	0.0673 KA relative to UGCAUGU
B15	0.121 KA relative to UGCAUGU
B16	0.0874 KA relative to UGCAUGU

Binder	binding signal
B17	0.0737 KA relative to UGCAUGU
B18	0.0924 KA relative to UGCAUGU
B19	0.0639 KA relative to UGCAUGU
B20	0.104 KA relative to UGCAUGU
B21	0.177 KA relative to UGCAUGU
B22	0.057 KA relative to UGCAUGU
B23	0.139 KA relative to UGCAUGU
B24	0.0471 KA relative to UGCAUGU
B25	0.0921 KA relative to UGCAUGU
B26	0.105 KA relative to UGCAUGU
B27	0.134 KA relative to UGCAUGU
B28	0.0513 KA relative to UGCAUGU
B29	0.112 KA relative to UGCAUGU
B30	0.108 KA relative to UGCAUGU
B31	0.118 KA relative to UGCAUGU
